The values below come from the supplement of paper PMC12217912.

The labels stand for the following.
B1: TEV protease; numbered along this chain (parent)
chain: MGESLFKGPRDYNPISSSICHLTNESDGHTTSLYGIGFGPFIITNKHLFRRNNGTLVVQSLHGVFKVKDTTTLQQHLVDGRDMIIIRMPKDFPPFPQKLKFREPQREERICLVTTNFQTKSMSSMVSDTSCTFPSGDGIFWKHWIQTKDGQCGSPLVSTRDGFIVGIHSASNFTNTNNYFTSVPKNFMELLTNQEAQQWVSGWRLNADSVLWGGHKVFMVKPEEPFQPVKEATQL

The other results are listed elsewhere or left out. Sequences were assembled here from the parent chain. Values near 0.05 are background.

The experiment covers variants of B1. Kind of experiment: raw area under fraction-flipped curve 0-4 h after induction (AUC4h, not background-subtracted), DNA-recorder readout of cleavage of the substrate (dimensionless); higher = more cleavage of the substrate by the protease variant. Conditions: temperature: 34 °C; time window: 0-4 h after rhamnose induction.
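Also: Bxb1 expression induced with 0.2% (w/v) L-rhamnose at OD600 near 0.5, cultures sampled hourly, flipped fraction per protease–substrate barcode pair counted by paired-end Illumina sequencing.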

Turning to MGESLFKGPRDYNPISSNICHLTNESDGHTTSLYGIGFGPFIITNKHLFRRNNGTLVVQSLHGVFKVKDTTTLQQHLVDGRDMIIIRMPKDFPPFPQKLKFREPQREERICLVTTNFQTKSMSSMVSDTSCTFPSGDGIFWKHWIQTKDGQCGSPLVSTRDGFIVGIHSASNFTNTNNYFTSVPKNFMELLTNQEAQQWVSGWRLNADSVLWGGHKVFMVKPEEPFQPVKEATQL [S18N], the “area with substrate ENLDFQS” value turned out to be 0.0697, the “area with substrate ENLEFQS” value is 0.0579, the “area with substrate ENLFFQS” value came out at 0.103 and the “area with substrate ENLGFQS” value is 0.0618. Besides, the “area with substrate ENLHFQS” value is 0.0556, the “area with substrate ENLIFQS” value turned out to be 0.0933, the “area with substrate ENLKFQS” value was found to be 0.0752 and the “area with substrate ENLLFQS” value worked out at 0.0688. The “area with substrate ENLNFQS” value worked out at 0.0735, the “area with substrate ENLSFQS” value was determined as 0.0741 and the “area with substrate ENLWFQS” value was found to be 0.0771.
For the variant MGESLFKGPRDYNPISSSICHLTNESDGHTTSLYGIGFGPFIITNKHLFRRNNGTLVVQSLHGVFKVKGTTTLQQHLVDGRDMIIIRMPKDFPPFPQKLKFREPQREERICLVTTNFQTKSMSSMVSDTSCTFPSGDGIFWKHWIQTKDGQCGSPLVSTRDGFIVGIHSASNFTNTNNYFTSVPKNFMELLTNQEAQQWVSGWRLNADSVLWGGHKVFMVKPEEPFQPVKEATQL [D69G], the “area with substrate ENLDFQS” value came out at 0.0639, the “area with substrate ENLEFQS” value came out at 0.0626, the “area with substrate ENLFFQS” value was determined as 0.0709 and the “area with substrate ENLKFQS” value stood at 0.0579. In addition, the “area with substrate ENLLFQS” value came to 0.0692, the “area with substrate ENLMFQS” value was 0.0746, the “area with substrate ENLPFQS” value was determined as 0.0645 and the “area with substrate ENLQFQS” value was 0.053. The “area with substrate ENLSFQS” value was 0.0586 and the “area with substrate ENLWFQS” value worked out at 0.0614.
In the case of MGESLFKGPRDYNPISSSICHLTNESDGHTTSLYGIGFGPFIITNKHYFRRNNGTLVVQSLHGVFKVKDTTTLQQHLVDGRDMIIIRMPKDFPPFPQKLKFREPQREERICLVTTNFQTKSMSSMVSDTSCTFPSGDGIFWKHWIQTKDGQCGSPLVSTRDGFIVGIHSASNFTNTNNYFTSVPKNFMELLTNQEAQQWVSGWRLNADSVLWGGHKVFMVKPEEPFQPVKEATQL [L48Y], the “area with substrate ENLDFQS” value was 0.0586, the “area with substrate ENLEFQS” value is 0.0468, the “area with substrate ENLFFQS” value is 0.064 and the “area with substrate ENLGFQS” value came out at 0.0611. Besides, the “area with substrate ENLIFQS” value was found to be 0.0637, the “area with substrate ENLKFQS” value amounted to 0.0588, the “area with substrate ENLMFQS” value is 0.0554 and the “area with substrate ENLQFQS” value came out at 0.0682.
Consider MGESLFKGPRDYNPISSSICHLTNESDGHTTSLYGIGFGPFIITNKHLFRRNNGTKVVQSLHGVFKVKDTTTLQQHLVDGRDMIIIRMPKDFPPFPQKLKFREPQREERICLVTTNFQTKSMSSMVSDTSCTFPSGDGIFWKHWIQTKDGQCGSPLVSTRDGFIVGIHSASNFTNTNNYFTSVPKNFMELLTNQEAQQWVSGWRLNADSVLWGGHKVFMVKPEEPFQPVKEATQL [L56K], for which the “area with substrate ENLDFQS” value was determined as 0.0606, the “area with substrate ENLEFQS” value stood at 0.0464, the “area with substrate ENLFFQS” value stood at 0.0508 and the “area with substrate ENLKFQS” value came out at 0.0534. Further, the “area with substrate ENLLFQS” value stood at 0.0424, the “area with substrate ENLMFQS” value came out at 0.0316, the “area with substrate ENLNFQS” value amounted to 0.0544 and the “area with substrate ENLPFQS” value was determined as 0.0414. Moreover, the “area with substrate ENLRFQS” value worked out at 0.0241, the “area with substrate ENLSFQS” value is 0.0441 and the “area with substrate ENLWFQS” value amounted to 0.0486.
For MGESLFKGPRDYNPISSSICHLTNESDGHTTSLYGIGFGPFIITNKHLFRRNNGTLVPQSLHGVFKVKDTTTLQQHLVDGRDMIIIRMPKDFPPFPQKLKFREPQREERICLVTTNFQTKSMSSMVSDTSCTFPSGDGIFWKHWIQTKDGQCGSPLVSTRDGFIVGIHSASNFTNTNNYFTSVPKNFMELLTNQEAQQWVSGWRLNADSVLWGGHKVFMVKPEEPFQPVKEATQL [V58P], the “area with substrate ENLDFQS” value is 0.0285, the “area with substrate ENLNFQS” value is 0.0262 and the “area with substrate ENLQFQS” value stood at 0.0308.
With MGESLFKGPRDYNPISSSICHLTNESDGHTTSLYKIGFGPFIITNKHLFRRNNGTLVVQSLHGVFKVKDTTTLQQHLVDGRDMIIIRMPKDFPPFPQKLKFREPQREERICLVTTNFQTKSMSSMVSDTSCTFPSGDGIFWKHWIQTKDGQCGSPLVSTRDGFIVGIHSASNFTNTNNYFTSVPKNFMELLTNQEAQQWVSGWRLNADSVLWGGHKVFMVKPEEPFQPVKEATQL [G35K], the “area with substrate ENLDFQS” value came out at 0.0546, the “area with substrate ENLKFQS” value turned out to be 0.0442 and the “area with substrate ENLWFQS” value turned out to be 0.032.
For MGESLFKGPRDYNPISSSICHLTNESDGHTTSLYGIGFGPFIITNKHLFRRNNGTLVVQSLHGVFKVKDTTTLQNHLVDGRDMIIIRMPKDFPPFPQKLKFREPQREERICLVTTNFQTKSMSSMVSDTSCTFPSGDGIFWKHWIQTKDGQCGSPLVSTRDGFIVGIHSASNFTNTNNYFTSVPKNFMELLTNQEAQQWVSGWRLNADSVLWGGHKVFMVKPEEPFQPVKEATQL [Q75N], the “area with substrate ENLDFQS” value came to 0.0636, the “area with substrate ENLFFQS” value is 0.0635, the “area with substrate ENLGFQS” value stood at 0.066 and the “area with substrate ENLIFQS” value came out at 0.0642. The “area with substrate ENLKFQS” value was found to be 0.053, the “area with substrate ENLLFQS” value was 0.0565 and the “area with substrate ENLSFQS” value came to 0.0649.
Take MGESLFKGPRDYNPISSSICHLTNESDGHTTSLYGIGFGPFIITNKHLFRRNNGTLVVQSLHGEFKVKDTTTLQQHLVDGRDMIIIRMPKDFPPFPQKLKFREPQREERICLVTTNFQTKSMSSMVSDTSCTFPSGDGIFWKHWIQTKDGQCGSPLVSTRDGFIVGIHSASNFTNTNNYFTSVPKNFMELLTNQEAQQWVSGWRLNADSVLWGGHKVFMVKPEEPFQPVKEATQL [V64E]: the “area with substrate ENLDFQS” value came out at 0.0649, the “area with substrate ENLEFQS” value came to 0.048, the “area with substrate ENLKFQS” value was 0.081 and the “area with substrate ENLNFQS” value came to 0.0621. The “area with substrate ENLPFQS” value came out at 0.0323.
Regarding MGESLFKGPRDYNPISSSICHLTNESDGHTTSLYGIGFGPFIITNKHLFRRNNGTLVVQSLHGYFKVKDTTTLQQHLVDGRDMIIIRMPKDFPPFPQKLKFREPQREERICLVTTNFQTKSMSSMVSDTSCTFPSGDGIFWKHWIQTKDGQCGSPLVSTRDGFIVGIHSASNFTNTNNYFTSVPKNFMELLTNQEAQQWVSGWRLNADSVLWGGHKVFMVKPEEPFQPVKEATQL [V64Y], the “area with substrate ENLDFQS” value worked out at 0.0439, the “area with substrate ENLFFQS” value was found to be 0.112, the “area with substrate ENLGFQS” value came to 0.0661 and the “area with substrate ENLHFQS” value is 0.117. Besides, the “area with substrate ENLLFQS” value is 0.06, the “area with substrate ENLMFQS” value was found to be 0.0803, the “area with substrate ENLNFQS” value turned out to be 0.038 and the “area with substrate ENLSFQS” value was determined as 0.0837.
On to MGESLFKGPRDYNPISSSICHLTNESDGHTTSLYGIGFGPFIITNKHLFRRNNGTLVVQSLHGVFKVKDTTTLQQHLVDWRDMIIIRMPKDFPPFPQKLKFREPQREERICLVTTNFQTKSMSSMVSDTSCTFPSGDGIFWKHWIQTKDGQCGSPLVSTRDGFIVGIHSASNFTNTNNYFTSVPKNFMELLTNQEAQQWVSGWRLNADSVLWGGHKVFMVKPEEPFQPVKEATQL [G80W], for which the “area with substrate ENLDFQS” value is 0.0593, the “area with substrate ENLEFQS” value came to 0.0657, the “area with substrate ENLFFQS” value was found to be 0.103 and the “area with substrate ENLHFQS” value amounted to 0.0649. For the same variant, the “area with substrate ENLIFQS” value was 0.0839, the “area with substrate ENLKFQS” value stood at 0.0712, the “area with substrate ENLLFQS” value stood at 0.0636 and the “area with substrate ENLNFQS” value was 0.0683. Further, the “area with substrate ENLPFQS” value stood at 0.0537, the “area with substrate ENLRFQS” value was 0.0689 and the “area with substrate ENLSFQS” value is 0.0636.
With MGESLFKGPRDYNPISSSICHLTNESDGFTTSLYGIGFGPFIITNKHLFRRNNGTLVVQSLHGVFKVKDTTTLQQHLVDGRDMIIIRMPKDFPPFPQKLKFREPQREERICLVTTNFQTKSMSSMVSDTSCTFPSGDGIFWKHWIQTKDGQCGSPLVSTRDGFIVGIHSASNFTNTNNYFTSVPKNFMELLTNQEAQQWVSGWRLNADSVLWGGHKVFMVKPEEPFQPVKEATQL [H29F], the “area with substrate ENLDFQS” value turned out to be 0.0577, the “area with substrate ENLEFQS” value was 0.0741, the “area with substrate ENLFFQS” value stood at 0.0702 and the “area with substrate ENLGFQS” value is 0.0698. Besides, the “area with substrate ENLHFQS” value stood at 0.0976, the “area with substrate ENLLFQS” value was 0.081, the “area with substrate ENLMFQS” value was 0.0427 and the “area with substrate ENLNFQS” value was 0.0578. The “area with substrate ENLPFQS” value is 0.0595, the “area with substrate ENLRFQS” value amounted to 0.0795, the “area with substrate ENLSFQS” value is 0.0558 and the “area with substrate ENLWFQS” value came out at 0.0607.
